Laboratory results: a collection of fitness landscapes (doi:10.1016/j.celrep.2020.107928)
The full ranking holds about 81,000 sequences; the median of “one-hybrid fitness for binding parS DNA” is about -0.17, and the highest 2% start at about 0.51. The list shows a part of the results.

B1: Caulobacter ParB omega fusion; a variant is named by its letters at X, in order, B8GW30 (parent)
chain: MESVVVGEPGMSEGRRGLGRGLSALLGEVDAAPAQAPGEQLGGSREAPIEILQRNPDQPRRTFREEDLEDLSNSIREKGVLQPILVRPSPDTAGEYQIVAGERAWRAAQRAGLKTVPIMVRELDDLAVLEIGIIENVQRADLNVLEEALSYKVLMEKFERTQENIAQTIGKSXSHVANXMRLLXLPDEVQSYLVSGELTAXHARAIAAAADPVALAKQIIEGGLSVRETEALARKAPNLSAGKSKGGRPPRVKDTDTQALESDLSSVLGLDVSIDHRGSTGTLTITYATLEQLDDLCNRLTRGI

Variants of: B1
Test: one-hybrid fitness for binding parS DNA (scaled: cognate 1, non-cognate 0); higher = stronger binding
Conditions: with parS DNA site
Procedure, shortened: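 Caulobacter ParB libraries with four specificity codons randomised were screened by bacterial one-hybrid selection in the E. coli USO strain, using a HIS3 reporter whose site lies 19 bp from the promoter. Selection ran for 48 hours at 37°C on M9 lacking histidine, with 0.1 mM IPTG and 5 mM 3-AT. Plasmids were Illumina-sequenced before and after selection, three replicate libraries were pooled, and variants with under 10 reads were dropped. Fitness is the log change in each variant's read ratio to wild type, rescaled against the cognate and non-cognate sites.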

Row | Variant | one-hybrid fitness for binding parS DNA
1 | TQFC | ≤ 0.2
2 | LLSR | ≤ 0.2
3 | NSWR | ≤ 0.2
4 | QVDL | ≤ 0.2
5 | KTRC | ≤ 0.2
6 | YRPN | ≤ 0.2
7 | YYAV | ≤ 0.2
8 | PNIW | ≤ 0.2
9 | PKWS | ≤ 0.2
10 | QVVF | ≤ 0.2
11 | SKNI | ≤ 0.2
12 | CSHF | ≤ 0.2
13 | IWAL | ≤ 0.2
14 | MSLD | ≤ 0.2
15 | EASN | ≤ 0.2
16 | GDVS | ≤ 0.2
17 | APQS | ≤ 0.2
18 | DHDR | ≤ 0.2
19 | RAGD | ≤ 0.2
20 | DLRL | ≤ 0.2
21 | QFTW | ≤ 0.2
22 | INIR | ≤ 0.2
23 | MYET | ≤ 0.2
24 | NADY | ≤ 0.2
25 | EQKC | ≤ 0.2
26 | RIGI | ≤ 0.2

Row | Variant | one-hybrid fitness for binding parS DNA
27 | LVAQ | ≤ 0.2
28 | NYRT | ≤ 0.2
29 | EYTF | ≤ 0.2
30 | KLAA | ≤ 0.2
31 | PFPG | ≤ 0.2
32 | AQQE | ≤ 0.2
33 | PSRY | ≤ 0.2
34 | MAYY | ≤ 0.2
35 | RIPI | ≤ 0.2
36 | NPNT | ≤ 0.2
37 | SGMV | ≤ 0.2
38 | TCCS | ≤ 0.2
39 | AKTS | ≤ 0.2
40 | PAHP | ≤ 0.2
41 | VIST | ≤ 0.2
42 | YLSN | ≤ 0.2
43 | ARSR | ≤ 0.2
44 | FDHP | ≤ 0.2
45 | ALDF | ≤ 0.2
46 | LNPV | ≤ 0.2
47 | YLPG | ≤ 0.2
48 | AADG | ≤ 0.2
49 | HHNC | ≤ 0.2
50 | WKSC | ≤ 0.2
51 | LFIC | ≤ 0.2
52 | QDVG | ≤ 0.2

Row | Variant | one-hybrid fitness for binding parS DNA
53 | TASR | ≤ 0.2
54 | RVIA | 0.522
55 | GLPW | ≤ 0.2
56 | QQGD | ≤ 0.2
57 | VHNF | ≤ 0.2
58 | ESIL | ≤ 0.2
59 | NIGG | ≤ 0.2
60 | RIAQ | ≤ 0.2
61 | KTRT | ≤ 0.2
62 | QQSC | ≤ 0.2
63 | LTMG | ≤ 0.2
64 | SYYS | ≤ 0.2
65 | PWRS | ≤ 0.2
66 | PFPW | ≤ 0.2
67 | WVAL | ≤ 0.2
68 | PNFR | ≤ 0.2
69 | PMVS | ≤ 0.2
70 | YGQY | ≤ 0.2
71 | CRFR | ≤ 0.2
72 | SWVR | ≤ 0.2
73 | LLNC | ≤ 0.2
74 | RICA | 0.525
75 | NPTG | ≤ 0.2
76 | QLYY | ≤ 0.2
77 | FYTT | ≤ 0.2
78 | AGTS | ≤ 0.2

Row | Variant | one-hybrid fitness for binding parS DNA
79 | SCQI | ≤ 0.2
80 | HMYS | ≤ 0.2
81 | RHHF | ≤ 0.2
82 | AELV | ≤ 0.2
83 | GQRT | ≤ 0.2
84 | AKLA | ≤ 0.2
85 | LNNG | ≤ 0.2
86 | QPNY | ≤ 0.2
87 | KLTM | ≤ 0.2
88 | CASK | ≤ 0.2
89 | RMKQ | ≤ 0.2
90 | RMQW | 0.249
91 | SFTF | ≤ 0.2
92 | TWIG | ≤ 0.2
93 | ERYG | ≤ 0.2
94 | AHLS | ≤ 0.2
95 | PTYA | ≤ 0.2
96 | KENG | ≤ 0.2
97 | MMHT | ≤ 0.2
98 | CPNI | ≤ 0.2
99 | YIVG | ≤ 0.2
100 | NEVS | ≤ 0.2
101 | QKWE | ≤ 0.2
102 | IVKV | ≤ 0.2
103 | RCCM | 0.406
104 | QDFM | ≤ 0.2

Row | Variant | one-hybrid fitness for binding parS DNA
105 | RSIV | ≤ 0.2
106 | LSTC | ≤ 0.2
107 | ACMR | ≤ 0.2
108 | DHYG | ≤ 0.2
109 | YYGS | ≤ 0.2
110 | MVDR | ≤ 0.2
111 | QSVE | ≤ 0.2
112 | VGKF | ≤ 0.2
113 | AVFL | ≤ 0.2
114 | VQAS | ≤ 0.2
115 | HFKF | ≤ 0.2
116 | PTHA | ≤ 0.2
117 | GVRW | ≤ 0.2
118 | KLFS | ≤ 0.2
119 | SHRS | ≤ 0.2
120 | VDQC | ≤ 0.2
121 | FIGC | ≤ 0.2
122 | SESD | ≤ 0.2
123 | KAKQ | ≤ 0.2
124 | RQKI | ≤ 0.2
125 | VRLM | ≤ 0.2
126 | YVTL | ≤ 0.2
127 | PFAF | ≤ 0.2
128 | IACV | ≤ 0.2
129 | RFCL | ≤ 0.2
130 | WSLL | ≤ 0.2

Row | Variant | one-hybrid fitness for binding parS DNA
131 | AMNC | ≤ 0.2
132 | WLAL | ≤ 0.2
133 | HVPL | ≤ 0.2
134 | THNH | ≤ 0.2
135 | ALIF | ≤ 0.2
136 | YLCV | ≤ 0.2
137 | AGIC | ≤ 0.2
138 | GHDL | ≤ 0.2
139 | QPWR | ≤ 0.2
140 | GVMR | ≤ 0.2
141 | LDKG | ≤ 0.2
142 | SGNG | ≤ 0.2
143 | GTPS | ≤ 0.2
144 | RNGR | ≤ 0.2
145 | SQMY | ≤ 0.2
146 | EVCR | ≤ 0.2
147 | RPWW | ≤ 0.2
148 | QDPC | ≤ 0.2
149 | LAAR | ≤ 0.2
150 | RRST | 0.54
151 | AVWL | ≤ 0.2
152 | HVDQ | ≤ 0.2
153 | TGME | ≤ 0.2
